{"source": "patent US20220023439A1", "about": "“ACTIVATABLE ANTI-CD166 ANTIBODIES AND METHODS OF USE THEREOF” (priority 2018, published 2022)", "test_system": "H292 xenografts", "experiment": "Quantification of activated and intact activatable antibody in tumor and plasma by the Wes system", "format": "in vivo", "conditions": "nude mice with H292 xenografts, 5 mg/kg, one day after treatment"}
{"molecule": "7614.6-3001-HuCD166: anti-CD166 activatable antibody comprising the heavy chain sequence of SEQ ID NO: 480 and the light chain sequence of SEQ ID NO: 246 (antibody) heavy: QITLKESGPTLVKPTQTLTLTCTFSGFSLSTYGMGVGWIRQPPGKALEWLANIWWSEDKHYSPSLKSRLTITKDTSKNQVVLTITNVDPVDTATYYCVQIDYGNDYAFTYWGQGTLVTVSS[skipping human IgG1 constant region] light: QGQSGQGLCHPAVLSAWESCSSGGGSSGGSAVGLLAPPGGLSGRSDNHGGSDIVMTQSPLSLPVTPGEPASISCRSSKSLLHSNGITYLYWYLQKPGQSPQLLIYQMSNLASGVPDRFSGSGSGTDFTLKISRVEAEDVGVYYCAQNLELPYTFGQGTKLEIKRTVAAPSVFIFPPSDEQLKSGTASVVCLLNNFYPREAKVQWKVDNALQSGNSQESVTEQDSKDSTYSLSSTLTLSKADYEKHKVYACEVTHQGLSSPVTKSFNRGEC", "values": [{"measurement": "Activation of the activatable antibody in tumor as compared to plasma", "result": "preferential activation in tumor"}]}
